# Assay results taken from ChEMBL document CHEMBL4888484, “Replenishing the malaria drug discovery pipeline: Screening and hit evaluation of the MMV Hit Generation Library 1 (HGL1) against asexual blood stage Plasmodium falciparum ,using a nano luciferase reporter read-out” (2022).
# About 540 (0.36%) of roughly 150,000 compounds showed an effect of 50% or more. The list shows a part of the results.
# System: Plasmodium falciparum
# Experiment: Primary screen in NF54 nanoGlo assay, in single point, at 2uM, 72h; a lower Z score goes with more inhibition
# Format: functional, Erythrocyte
# Conditions: timepoint 72 hour
Structure (SMILES),% Inhibition,Z score
CN1CCN([C@H]2CCN(c3nccc4ccccc34)C[C@H]2CCC(=O)O)CC1,1%,-0.12
N#CCCCS(=O)(=O)NCCc1cc(C(F)(F)F)ccn1,-8%,0.83
CC1(C)CNC(=O)N1Cc1ccc(Cl)cc1,7%,-1.01
Cc1ccc(C(=O)N[C@H]2CCN(C3CCCCC3)C2=O)cc1O,-8%,0.8
COc1c2ccc(C(=O)N3CCOCC3)cc2nn1C,-5%,0.92
COc1ccc(N[C@H]2CCCN(C3CCN(c4ccc(F)cc4C)CC3)C2)cc1OC,-14%,1.26
Cc1c(C(=O)N(C)CC2(O)CCOCC2)nnn1-c1cccc2cccnc12,-12%,2.23
c1ccc(-c2nnc(-c3ccccn3)o2)cc1,-14%,2.45
O=C(c1cccc(-n2cccn2)n1)N1CCC[C@H]1c1cccc(F)c1,-19%,1.65
Cc1nc(=O)[nH]c(C)c1CCC(=O)Nc1nc(C(F)(F)F)c[nH]1,-7%,0.78
Cc1nc(CC(N)=NO[C@H]2CCCc3cccnc32)cs1,-4%,0.94
O=C(c1ccc2c(c1)ncn2CCO)N1C[C@H]2CC[C@@H](C1)N(CC1CC1)C2,-13%,1.96
Cc1onc(C(=O)N2CCC(CCc3noc(N(C)C)n3)CC2)c1CN1CCCCC1,-4%,0.69
O=C(OCc1nc(-c2ccccc2)no1)c1nn(-c2ccc(F)cc2)cc1O,7%,-0.92
CCOc1cc(N2CCOCC2)c(OCC)cc1N[C@@H](C)C(=O)Nc1cc(Cl)cc(Cl)c1,2%,-0.22
O=C(O)Cn1c(Cc2ccccc2)nc2ccccc21,9%,-1.11
COCc1c(-c2cccc(F)c2)c2cc3c(cc2[nH]c1=O)OCCO3,8%,-0.97
COCC(=O)N1CCc2ncnc(N3CCC[C@H](C(N)=O)C3)c2CC1,10%,-2.04
CN(C)CCN(C[C@H]1CCCO1)C(=O)c1cccc(-c2cc(N)ncn2)c1,6%,-0.78
Nc1nc(-c2ncnn2CC(F)(F)F)cs1,-23%,2.09
Cc1c(Cc2ccccc2)c(=O)n2nc(-c3ccccc3)nc2n1CC(=O)NCc1ccccc1F,11%,-1.42
Cc1cccc(CNS(=O)(=O)c2cc(C(=O)N3CCCCCC3)cs2)c1,-8%,1.5
Cc1ccc(S(=O)(=O)N2CC(OC[C@H]3CCOC3)C2)cc1Cl,-22%,3.41
